Assay results from the antibiotic and cytotoxicity screens of Wong et al. (2023).
This is one part of the list.

Tests used:
HSkMC = human skeletal muscle cells; test: cytotoxicity call (relative viability < 0.9); conditions: 10 µM
HepG2 = test: cytotoxicity call (relative viability < 0.9); conditions: 10 µM
S. aureus RN4220 = test: growth inhibition call (relative growth <= 0.2); conditions: 50 µM

## Cc1noc(C)c1NC(=O)Nc1ccc2c(c1)C(=O)N([C@H](C)CO)C[C@H](C)[C@H](CN(C)C(=O)Nc1cccc3ccccc13)O2
HSkMC
  cytotoxicity call: inactive
HepG2
  cytotoxicity call: inactive
S. aureus RN4220
  growth inhibition call: inactive

## C[C@H]1CN([C@@H](C)CO)C(=O)CCCn2cc(nn2)CO[C@@H]1CN(C)C(=O)c1ccc(N2CCN(C)CC2)cc1
HSkMC
  cytotoxicity call: inactive
HepG2
  cytotoxicity call: active
S. aureus RN4220
  growth inhibition call: inactive

## C[C@@H]1CN([C@H](C)CO)C(=O)c2cc(NC(=O)Nc3cccc4ccccc34)ccc2O[C@@H]1CN(C)Cc1ccc(C(F)(F)F)cc1
HSkMC
  cytotoxicity call: inactive
HepG2
  cytotoxicity call: inactive
S. aureus RN4220
  growth inhibition call: inactive

## C[C@@H]1CN([C@@H](C)CO)C(=O)c2cc(NS(=O)(=O)c3ccccc3)ccc2O[C@@H](C)CCCCO[C@@H]1CN(C)Cc1ccc(C(F)(F)F)cc1
HSkMC
  cytotoxicity call: inactive
HepG2
  cytotoxicity call: inactive
S. aureus RN4220
  growth inhibition call: inactive

## COc1ccc(NC(=O)Nc2ccc3c(c2)C(=O)N([C@@H](C)CO)C[C@@H](C)[C@@H](CN(C)S(=O)(=O)c2cccs2)OCCCC[C@@H](C)O3)cc1
HSkMC
  cytotoxicity call: inactive
HepG2
  cytotoxicity call: inactive
S. aureus RN4220
  growth inhibition call: inactive

## Cc1ccc(S(=O)(=O)N(C)C[C@@H]2Oc3c(NC(=O)C4CCOCC4)cccc3C(=O)N([C@@H](C)CO)C[C@H]2C)cc1
HSkMC
  cytotoxicity call: inactive
HepG2
  cytotoxicity call: inactive
S. aureus RN4220
  growth inhibition call: inactive

## C[C@@H]1CCCCO[C@H](CN(C)CC2CC2)[C@H](C)CN([C@H](C)CO)C(=O)c2cc(NC(=O)C3CCCCC3)ccc2O1
HSkMC
  cytotoxicity call: inactive
HepG2
  cytotoxicity call: inactive
S. aureus RN4220
  growth inhibition call: inactive

## Cc1ccc(S(=O)(=O)N(C)C[C@H]2OCCCC[C@H](C)Oc3ccc(NC(=O)CCC(F)(F)F)cc3C(=O)N([C@@H](C)CO)C[C@H]2C)cc1
HSkMC
  cytotoxicity call: inactive
HepG2
  cytotoxicity call: inactive
S. aureus RN4220
  growth inhibition call: inactive

## C=CCCC(=O)N(C)[C@H](C)[C@H](OC(=O)[C@@H]1[C@@H]2C=C[C@]3(O2)[C@H](C(=O)N(CC=C)Cc2ccccc2)N(Cc2ccc(OC)cc2)C(=O)[C@@H]13)c1ccccc1
HSkMC
  cytotoxicity call: inactive
HepG2
  cytotoxicity call: inactive
S. aureus RN4220
  growth inhibition call: inactive

## C[C@H](CO)N1C[C@H](C)[C@H](CN(C)S(=O)(=O)c2cccs2)Oc2ccc(NS(=O)(=O)c3ccc(F)cc3)cc2C1=O
HSkMC
  cytotoxicity call: inactive
HepG2
  cytotoxicity call: inactive
S. aureus RN4220
  growth inhibition call: inactive

## COc1ccccc1CNC(=O)C[C@H]1CC[C@H]2[C@@H](COC[C@H](O)CN2C(=O)Nc2ccc(Cl)cc2)O1
HSkMC
  cytotoxicity call: inactive
HepG2
  cytotoxicity call: inactive
S. aureus RN4220
  growth inhibition call: active
